The results in this text go back to the supplement of paper PMC4604168 (melanoma cell lines).

The structures appear in SMILES notation. Some of the results follow. Most values come without repeats; read them as rough.
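Note: cell number obtained by counting DAPI-stained nuclei in high-throughput microscope images with image analysis software, screen run in 1,536-well plates.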

For the assay, the system named is RVH-421. The experiment in a line: cell count relative to DMSO control; melanoma cells; higher = more viable cells. The settings on record: library dose: low library concentration; 72 h.
Turning to `O=C(Nc1cc(C(F)(F)F)cc(C(F)(F)F)c1)c1cc(Cl)ccc1O` + CS(=O)(=O)c1ccc(C(=O)Nc2ccc(Cl)c(-c3ccccn3)c2)c(Cl)c1 [vismodegib] (first compound 0.016 µM, partner dose 1 µM), the cell count amounted to 90.2%.
The figure for `O=C(Nc1cc(C(F)(F)F)cc(C(F)(F)F)c1)c1cc(Cl)ccc1O` + COc1ccc(Cl)c(Nc2nc3ccccc3nc2NS(=O)(=O)c2cccc(NC(=O)C(C)(C)N)c2)c1 [XL147] (first compound 0.016 µM, partner dose 0.8 µM) is 103%; for `O=C(O)c1ccc2c(c1)nc(Nc1cccc(Cl)c1)c1ccncc12` + Cn1nnc2c(C(N)=O)ncn2c1=O [temozolomide] (first compound 0.4 µM, partner dose 2 µM) it is 126%; for `O=C(O)c1ccc2c(c1)nc(Nc1cccc(Cl)c1)c1ccncc12` + CC1(C)NC(=O)N(c2ccc([N+](=O)[O-])c(C(F)(F)F)c2)C1=O [nilutamide] (first compound 0.4 µM, partner dose 1 µM) it is 110%.
Compound `O=C(O)c1ccc2c(c1)nc(Nc1cccc(Cl)c1)c1ccncc12` + Oc1nc(-c2ccc(C(F)(F)F)cc2)nc2c1CSCC2 [XAV939] (first compound 0.4 µM, partner dose 2 µM) showed a cell count of 99.5%.
The figure for `O=C(O)[C@@H]1[O][Sb](=[O])([O][Sb]2(=[O])[O][C@H]([C@H](O)CO)[C@H](O)[C@H](C(=O)O)[O]2)[O][C@H]([C@H](O)CO)[C@@H]1O` (some centres undefined) [stibogluconate] + C#Cc1cccc(Nc2ncnc3cc(OCCOC)c(OCCOC)cc23)c1 [erlotinib] (first compound 2 µM, partner dose 0.8 µM) is 104%; for `O=C(O)[C@@H]1[O][Sb](=[O])([O][Sb]2(=[O])[O][C@H]([C@H](O)CO)[C@H](O)[C@H](C(=O)O)[O]2)[O][C@H]([C@H](O)CO)[C@@H]1O` (some centres undefined) [stibogluconate] + C[C@@H]1CCN(C(=O)CC#N)C[C@@H]1N(C)c1ncnc2[nH]ccc12 [CP690550] (first compound 2 µM, partner dose 1 µM) it is 94.7%.
The figure for `O=C(O)[C@@H]1[O][Sb](=[O])([O][Sb]2(=[O])[O][C@H]([C@H](O)CO)[C@H](O)[C@H](C(=O)O)[O]2)[O][C@H]([C@H](O)CO)[C@@H]1O` (some centres undefined) [stibogluconate] + OCc1c[nH]c2ccccc12 [Indole-3-carbinol] (first compound 2 µM, partner dose 0.8 µM) is 88.9%; for `O=C(Nc1cc(C(F)(F)F)cc(C(F)(F)F)c1)c1cc(Cl)ccc1O` + Clc1ccc(Nc2nnc(Cc3ccncc3)c3ccccc23)cc1 [vatalanib] (first compound 0.016 µM, partner dose 2 µM) it is 105%.
To `O=C(Nc1cc(C(F)(F)F)cc(C(F)(F)F)c1)c1cc(Cl)ccc1O` + CN(NC(=O)CC(=O)NN(C)C(=S)c1ccccc1)C(=S)c1ccccc1 [STA4783] (first compound 0.016 µM, partner dose 0.006 µM) belongs 113%; to `O=C(Nc1cc(C(F)(F)F)cc(C(F)(F)F)c1)c1cc(Cl)ccc1O` + COCC[n+]1c2c(n(Cc3cnccn3)c1C)C(=O)c1ccccc1C2=O [YM155] (first compound 0.016 µM, partner dose 0.0004 µM), 73.4%.
Turning to `O=C(Nc1cc(C(F)(F)F)cc(C(F)(F)F)c1)c1cc(Cl)ccc1O` + O=C(O)c1ccc2c(c1)nc(Nc1cccc(Cl)c1)c1ccncc12 [CX4945] (first compound 0.016 µM, partner dose 0.4 µM), the cell count came out at 139%.
As to `O=C(Nc1cc(C(F)(F)F)cc(C(F)(F)F)c1)c1cc(Cl)ccc1O` + CCCCCCCCCCCCCCCCCCOP(=O)([O-])OC1CC[N+](C)(C)CC1 [Perifosine] (first compound 0.016 µM, partner dose 0.4 µM), the cell count turned out to be 79.4%.
The figure for `O=C(O)c1ccc2c(c1)nc(Nc1cccc(Cl)c1)c1ccncc12` + NC(=O)Nc1cc(-c2cccc(F)c2)sc1C(=O)N[C@H]1CCCNC1 [AZD7762] (first compound 0.4 µM, partner dose 0.02 µM) is 125%; for `O=C(Nc1cc(C(F)(F)F)cc(C(F)(F)F)c1)c1cc(Cl)ccc1O` + C#Cc1cccc(Nc2ncnc3cc(OCCOC)c(OCCOC)cc23)c1 [erlotinib] (first compound 0.016 µM, partner dose 0.8 µM) it is 110%; for `O=C(O)[C@@H]1[O][Sb](=[O])([O][Sb]2(=[O])[O][C@H]([C@H](O)CO)[C@H](O)[C@H](C(=O)O)[O]2)[O][C@H]([C@H](O)CO)[C@@H]1O` (some centres undefined) [stibogluconate] + Nc1nc(F)nc2c1ncn2[C@@H]1O[C@H](CO)[C@@H](O)[C@@H]1O [fludarabine] (first compound 2 µM, partner dose 0.2 µM) it is 92.4%.
As for `O=C(O)[C@@H]1[O][Sb](=[O])([O][Sb]2(=[O])[O][C@H]([C@H](O)CO)[C@H](O)[C@H](C(=O)O)[O]2)[O][C@H]([C@H](O)CO)[C@@H]1O` (some centres undefined) [stibogluconate] + Cn1nnc2c(C(N)=O)ncn2c1=O [temozolomide] (first compound 2 µM, partner dose 2 µM), the cell count is 103%.
The figure for `O=C(O)[C@@H]1[O][Sb](=[O])([O][Sb]2(=[O])[O][C@H]([C@H](O)CO)[C@H](O)[C@H](C(=O)O)[O]2)[O][C@H]([C@H](O)CO)[C@@H]1O` (some centres undefined) [stibogluconate] + CC(C)(C)c1cnc(CSc2cnc(NC(=O)C3CCNCC3)s2)o1 [SNS-032] (first compound 2 µM, partner dose 0.01 µM) is 74.7%; for `O=C(O)c1ccc2c(c1)nc(Nc1cccc(Cl)c1)c1ccncc12` + CO[C@@H]1[C@H](N(C)C(=O)c2ccccc2)C[C@H]2O[C@]1(C)n1c3ccccc3c3c4c(c5c6ccccc6n2c5c31)C(=O)NC4 [Midostaurin] (first compound 0.4 µM, partner dose 0.08 µM) it is 95.5%.
To `O=C(O)[C@@H]1[O][Sb](=[O])([O][Sb]2(=[O])[O][C@H]([C@H](O)CO)[C@H](O)[C@H](C(=O)O)[O]2)[O][C@H]([C@H](O)CO)[C@@H]1O` (some centres undefined) [stibogluconate] + COCC[n+]1c2c(n(Cc3cnccn3)c1C)C(=O)c1ccccc1C2=O [YM155] (first compound 2 µM, partner dose 0.0004 µM) belongs 102%; to `O=C(Nc1cc(C(F)(F)F)cc(C(F)(F)F)c1)c1cc(Cl)ccc1O` + NC1(c2ccc(-c3nc4ccn5c(=O)[nH]nc5c4cc3-c3ccccc3)cc2)CCC1 [MK2206] (first compound 0.016 µM, partner dose 0.4 µM), 82.6%; to `O=C(Nc1cc(C(F)(F)F)cc(C(F)(F)F)c1)c1cc(Cl)ccc1O` + O=c1[nH]nc(Sc2ncc([N+](=O)[O-])s2)n1-c1ccc2c(c1)OCCO2 [BI78D3] (first compound 0.016 µM, partner dose 0.2 µM), 120%.
In turn, `O=C(O)[C@@H]1[O][Sb](=[O])([O][Sb]2(=[O])[O][C@H]([C@H](O)CO)[C@H](O)[C@H](C(=O)O)[O]2)[O][C@H]([C@H](O)CO)[C@@H]1O` (some centres undefined) [stibogluconate] + Nc1cccc2c1CN(C1CCC(=O)NC1=O)C2=O [lenalidomide] (first compound 2 µM, partner dose 1 µM) yielded a cell count of 106%.
In turn, `Cn1nnc2c(C(N)=O)ncn2c1=O` [temozolomide] + CN(NC(=O)CC(=O)NN(C)C(=S)c1ccccc1)C(=S)c1ccccc1 [STA4783] (first compound 2 µM, partner dose 0.006 µM) gave a cell count of 110%.
